Data reported in the RNAGym collection of RNA variant scans (doi:10.1093/nar/gkz1192).
Read counts are not given, so values of variants with three or more changes are uncertain.

B1: CPEB3 Ribozyme (parent)
chain: UAACAGGGGGCCACAGCAGAAGCGUUCACGUCGCAGCCCCUGUCAGAUUCUGGUGAAUCUGCGAAUUCUGCUGUAUAUCUC

Variants of: B1
Assay: self-cleavage, relative activity (ratio to wild type); higher = more cleavage; in vitro, sequencing
Summary of the method: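 For each CPEB3 ribozyme variant, relative activity is its cleaved/total read fraction divided by the unmutated ribozyme's. Barcoded error-prone PCR libraries were transcribed by T7 RNA polymerase (5 hours, 37°C) and held in DNase I for 15 min before an EDTA stop, with cleavage occurring throughout. Template-switching reverse transcription and Illumina sequencing were used to read the RNAs. A 5-read minimum applied, and results are the mean of three batches.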
Variant UAACAGGGGGCCACAGCUGAAGCGUUCACGUCGCAGCCCCUGUCAGAUUCUGGCGAAUCUGCGAAUCCUGCUGUAUAUCUC [A18U U54C U67C] has a self-cleavage of 0.19.
Work on UAACAGGGGGCCACAGCAAAAGCGUCCACGUCGCAGCCCCUGUCAGAUUCUGGUGGAUCUGCGAAUUCUGCUGUAUAUCUC [G19A U26C A56G] yielded a self-cleavage of 0.09.
Work on UAACAGGGGGCCACAGCAAAAGCGUUCACGUCGCAGCCCCUGUCGGAUUCUGGUGAAUCAGCGAAUUCUGCUGUAUAUCUC [G19A A45G U60A] yielded a self-cleavage of 0.42.
UAACAGGGGGCCACAGCAAAAGCGAUCACGUCGUAGCCCCUGUCAGAUUCUGGUGAGUCUGCGAAUUCUGCUGUAUAUCUC [G19A U25A C34U A57G] showed a self-cleavage of 0.05.
In the case of UAACAGGGGGCCACAGCACAAGCGUUCACGCCGCAGCCCCUGUCAGACUCUGGUGAAUCUGCGAAUUCAGCUGUAUAUCUC [G19C U31C U48C U69A], the self-cleavage is reported as 0.15.
Work on UAACAGGGGGCCACAGCACAAGCGUUCACGGCGCUGCCCCUGACAGAUUCUGGUGGAUCUGCGAAUUCUGCUGUAUAUCUC [G19C U31G A35U U43A A56G] yielded a self-cleavage of 0.05.
For UAACAGGGGGCCACAGCUGAAGCGUUCACGUCGCAGCCCCUGUCAGAUUCUGGUGAAUCUGCGAAUUCCGCUGUAUAUCAC [A18U U69C U80A], the self-cleavage was 0.64.
With UAACAGGGGGCCACAGCAUAAGCCUCCACGUCGCAGCCCCUGUCAGAUUCCGGUGAAUCUGCGGAUUCUGCUGUAUAUCUC [G19U G24C U26C U51C A64G] the self-cleavage was 0.08.
For UAACAGGGGGCCACAGCAAAAGCGUUCACGUCACAGCCCCUGUCAGAUUCUGGUGAAUCUGCGAAUUCUGCCGUAUAUCUC [G19A G33A U72C], the self-cleavage was 0.07.
With UAACAGGGGGCCACAGCAUAAGCGUUCACGUCGCGGCCCCUGUCCGAUUCUGGUGAAUCUACGAAUUCUGCUGUAUAUCUC [G19U A35G A45C G61A] the self-cleavage was 0.17.
With UAACAGGGGGCCACAGCAAGAGCGUUCACGUCGCAGCCGCUGUCAGAUUCUGGUGAAUCAGCGAAUUCAGCUGUAUAUCCC [G19A A20G C39G U60A U69A U80C] the self-cleavage was 0.11.
Variant UAACAGGGGGCCACAGCAUAAGCGUUCACGUCGCGGCCCCUGUCCGAUUCUGGUGAAUCUGCGAAUUCUGCUGUAUAUCUC [G19U A35G A45C] has a self-cleavage of 0.22.
UAACAGGGGGCCACAGCAUAGGCGUUCACGUCGCAGCCCCUGUCAGAUUCUAGUGAAUCUGCGAAUUCUGCUGUAUAUCUC [G19U A21G G52A] gave a self-cleavage of 0.11.
In the case of UAACAGGGGGCCACAGCUGAAGCGUUCACGUCGCAGCCCCUGUCAGAUCCUGGCGAAUCUGCGAACUCUGCUGUAUAUCUC [A18U U49C U54C U66C], the self-cleavage is reported as 0.07.
UAACAGGGGGCCACAGCUGAAGCGUUCACGUCGCAGCCCCUGUCAGAUUCUGGUGAAUCUGCGAAUUCUGCUGUAUACCUA [A18U U78C C81A] showed a self-cleavage of 0.4.
Variant UAACAGGGGGCCACAGCACAAGAGUUCGCGUCGCAGCCCCUGUCAGAUUCUGGUGAAUCUGCGAAUUCUGCUGUAUACCUC [G19C C23A A28G U78C] has a self-cleavage of 0.05.
With UAACAGGGGGCCACAGCACAAGCGUUCACGUCGCAGACCCUGUCAGAUUCUGGUGAAUCCGCGAAUUCCGCUGUAUAUCUC [G19C C37A U60C U69C] the self-cleavage was 0.05.
In the case of UAACAGGGGGCCACAGCAAAAGCGUCCACGUCGCAGCCCCUGUCGGAUUCUGGUGAAUCUGAGAAUUCUGCUGUAUAUCUC [G19A U26C A45G C62A], the self-cleavage is reported as 0.32.
Work on UAACAGGGGGCCACAGCACAAGCGCUCACGUCGCGGCCCCUGUCAGAUCCUGGUGAAUCUGCGAAUUCUGCUGUAUAUCUC [G19C U25C A35G U49C] yielded a self-cleavage of 0.22.
With UAACAGGGGGCCACAGCAAAAGCGUUCACGUCGCAGCCCCCUUCAGAUUCUGGUGAAUCUGCGAAUUCUGCUGUAUAUCUC [G19A U41C G42U] the self-cleavage was 0.24.
In the case of UAACAGGGGGCCACAGCAAAAGCGAUCACGUCGCAGCCCCAGUCAGAUUCUGGUGGAUCUGCGAAUUCUGCUAUGUAUCUC [G19A U25A U41A A56G G73A A75G], the self-cleavage is reported as 0.17.
In the case of UAACAGGGGGCCACAGCUGAAGCGUUCACGUCGCAGCCCCUGUCAGAUUCUGGUGAAUCCGCGAAUUCUGCUGUAUAUCGC [A18U U60C U80G], the self-cleavage is reported as 0.28.
With UAACAGGGGGCCACAGCAAUAGCGUCCGCGUCGCAGCCCCUGUCAGAUUCUGGUGAAUCUGCGAAUUCUGCUGUACAUCUC [G19A A20U U26C A28G U76C] the self-cleavage was 0.07.
In the case of UAACAGGGGGCCACAGCAAAAGCGUUCACGUCGCAGCCCCUGUCGGACUCUGGAGAAUCUGCGAAUUCUGCUGUAUAUCUC [G19A A45G U48C U54A], the self-cleavage is reported as 0.11.
Variant UAACAGGGGGCCACAGCUGAAGCGUUCACGUCGCAGCCCCUGUCAGAAUCUGGUGAAUCUGCGAAAUCUGCUGUAUAUCUC [A18U U48A U66A] has a self-cleavage of 0.15.
Work on UAACAGGGGGCCACAGCACGAGCGUUCACGUCGCGGCCCCUGUCAGAUUCAGGUGAAUCAGCGAAUUCCGCUGUAUAUCUC [G19C A20G A35G U51A U60A U69C] yielded a self-cleavage of 0.17.
Work on UAACAGGGGGCCACAGCAUAAGCGUUCACGUCGCAGUCCCUGUCAGAUUCUGGUGAACCUGCGAAUUCUGCUAUAUAUCUC [G19U C37U U58C G73A] yielded a self-cleavage of 0.21.
With UAACAGGGGGCCACAGCAAGAGAGUUCACGUCGCAGCCCCUGUCAGAUUCUGGUGAAUCUGCGCAUUCUGCUGUAUAUCUC [G19A A20G C23A A64C] the self-cleavage was 0.13.
For UAACAGGGGGCCACAGCAUAAGCGUCCUCGUCGCAGCCCCUGUCAGAUUCUGGUGAAUCUGCGAAUUCUGCUGUAUAUCUC [G19U U26C A28U], the self-cleavage was 0.42.
UAACAGGGGGCCACAGCACAUGCGUUCACGUCGCAGCCCCUGUCAGAUUCUGGUGAAUCUGCGAGUUCUGCUGUAUAUCUC [G19C A21U A65G] gave a self-cleavage of 0.08.
In the case of UAACAGGGGGCCACAGCAUAAGCAUUCACGUCGCAGCCCCUGUCAGUUUCUGGUGAAUCUGCGAAUUCUGCAGUAUACCUC [G19U G24A A47U U72A U78C], the self-cleavage is reported as 0.07.
With UAACAGGGGGCCACAGCAUAAGCGUUCAUGUCGCCGCCCCUGCCAGGUUCUGGUGAAUCUGCGAAUUCAGCUGUAUAUCUC [G19U C29U A35C U43C A47G U69A] the self-cleavage was 0.08.
Variant UAACAGGGGGCCACAGCAUAAGCGUCCACGUCGCGGCCCCUGUCAGGUUCUGGUGAAUCUGCGAAUUCUGCUGUGUAUCUC [G19U U26C A35G A47G A75G] has a self-cleavage of 0.07.
In the case of UAACAGGGGGCCACAGCAAAAGCGUUCACGUCGCAGCCCCCGUCAGAUUCUGGUGAACCUGCGAACUCUGCUGUUUAUCUC [G19A U41C U58C U66C A75U], the self-cleavage is reported as 0.08.
